Data: paper PMC9911399, “Two distinct binding modes provide the RNA-binding protein RbFox with extraordinary sequence specificity”
Where a chain is given by its changes, count along the chain named. Some of the results follow.

T1: RBFOX1 RRM RbFoxmut (Fox-RRM*) (Homo sapiens, UniProt Q9NWB1 109-208, R118D;E147R;N151S;E152T)
T1 sequence: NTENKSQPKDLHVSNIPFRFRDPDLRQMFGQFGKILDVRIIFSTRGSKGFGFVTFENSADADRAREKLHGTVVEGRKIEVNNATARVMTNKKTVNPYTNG

B1: UGCCGAC (DNA:RNA)
RNA: GGGAGACCGGAAUUCAGAUUGUCCUGCCGACUUAAAUCCCGUCGUAGCCACCA
DNA 1: CAATCTGAATTCCGGTCTCCC
DNA 2: TGGTGGCTACGACGGGATT
B2: UAUGUGC (DNA:RNA)
RNA: B1 RNA with G26A, C27U, C28G, G29U, A30G
DNA 1: CAATCTGAATTCCGGTCTCCC
DNA 2: TGGTGGCTACGACGGGATT
B3: UCACCGC (DNA:RNA)
RNA: B1 RNA with G26C, C27A, G29C, A30G
DNA 1: CAATCTGAATTCCGGTCTCCC
DNA 2: TGGTGGCTACGACGGGATT
B4: CCGAAUU (DNA:RNA)
RNA: GGGAGACCGGAAUUCAGAUUGUCCCCGAAUUUUAAAUCCCGUCGUAGCCACCA
DNA 1: CAATCTGAATTCCGGTCTCCC
DNA 2: TGGTGGCTACGACGGGATT
B5: UGGUCAG (DNA:RNA)
RNA: B1 RNA with C27G, C28U, G29C, C31G
DNA 1: CAATCTGAATTCCGGTCTCCC
DNA 2: TGGTGGCTACGACGGGATT
B6: ACCGAAC (DNA:RNA)
RNA: B1 RNA with U25A, G26C, C28G, G29A
DNA 1: CAATCTGAATTCCGGTCTCCC
DNA 2: TGGTGGCTACGACGGGATT
B7: AUUAUCU (DNA:RNA)
RNA: B4 RNA with C25A, C26U, G27U, A29U, U30C
DNA 1: CAATCTGAATTCCGGTCTCCC
DNA 2: TGGTGGCTACGACGGGATT
B8: UCAUACA (DNA:RNA)
RNA: B4 RNA with C25U, G27A, A28U, U30C, U31A
DNA 1: CAATCTGAATTCCGGTCTCCC
DNA 2: TGGTGGCTACGACGGGATT
B9: AUUAUUG (DNA:RNA)
RNA: B4 RNA with C25A, C26U, G27U, A29U, U31G
DNA 1: CAATCTGAATTCCGGTCTCCC
DNA 2: TGGTGGCTACGACGGGATT
B10: ACUCGGU (DNA:RNA)
RNA: B4 RNA with C25A, G27U, A28C, A29G, U30G
DNA 1: CAATCTGAATTCCGGTCTCCC
DNA 2: TGGTGGCTACGACGGGATT
B11: AUACUAU (DNA:RNA)
RNA: B1 RNA with U25A, G26U, C27A, G29U, C31U
DNA 1: CAATCTGAATTCCGGTCTCCC
DNA 2: TGGTGGCTACGACGGGATT
B12: CUAUCUC (DNA:RNA)
RNA: B4 RNA with C26U, G27A, A28U, A29C, U31C
DNA 1: CAATCTGAATTCCGGTCTCCC
DNA 2: TGGTGGCTACGACGGGATT
B13: AGAUAUA (DNA:RNA)
RNA: B4 RNA with C25A, C26G, G27A, A28U, U31A
DNA 1: CAATCTGAATTCCGGTCTCCC
DNA 2: TGGTGGCTACGACGGGATT
B14: AUUAGCG (DNA:RNA)
RNA: B4 RNA with C25A, C26U, G27U, A29G, U30C, U31G
DNA 1: CAATCTGAATTCCGGTCTCCC
DNA 2: TGGTGGCTACGACGGGATT
B15: UAAUGUA (DNA:RNA)
RNA: B1 RNA with G26A, C27A, C28U, A30U, C31A
DNA 1: CAATCTGAATTCCGGTCTCCC
DNA 2: TGGTGGCTACGACGGGATT
B16: GCAAUUA (DNA:RNA)
RNA: B4 RNA with C25G, G27A, A29U, U31A
DNA 1: CAATCTGAATTCCGGTCTCCC
DNA 2: TGGTGGCTACGACGGGATT
B17: CACCGCA (DNA:RNA)
RNA: B1 RNA with U25C, G26A, A30C, C31A
DNA 1: CAATCTGAATTCCGGTCTCCC
DNA 2: TGGTGGCTACGACGGGATT
B18: AUGAUGG (DNA:RNA)
RNA: B4 RNA with C25A, C26U, A29U, U30G, U31G
DNA 1: CAATCTGAATTCCGGTCTCCC
DNA 2: TGGTGGCTACGACGGGATT
B19: CCGCAUA (DNA:RNA)
RNA: B4 RNA with A28C, U31A
DNA 1: CAATCTGAATTCCGGTCTCCC
DNA 2: TGGTGGCTACGACGGGATT
B20: UCACCAA (DNA:RNA)
RNA: B1 RNA with G26C, C27A, G29C, C31A
DNA 1: CAATCTGAATTCCGGTCTCCC
DNA 2: TGGTGGCTACGACGGGATT
B21: GAAAAAG (DNA:RNA)
RNA: B4 RNA with C25G, C26A, G27A, U30A, U31G
DNA 1: CAATCTGAATTCCGGTCTCCC
DNA 2: TGGTGGCTACGACGGGATT
B22: GGAGCUU (DNA:RNA)
RNA: B4 RNA with C25G, C26G, G27A, A28G, A29C
DNA 1: CAATCTGAATTCCGGTCTCCC
DNA 2: TGGTGGCTACGACGGGATT
B23: CCGGUGU (DNA:RNA)
RNA: B4 RNA with A28G, A29U, U30G
DNA 1: CAATCTGAATTCCGGTCTCCC
DNA 2: TGGTGGCTACGACGGGATT
B24: UUAGACA (DNA:RNA)
RNA: B4 RNA with C25U, C26U, G27A, A28G, U30C, U31A
DNA 1: CAATCTGAATTCCGGTCTCCC
DNA 2: TGGTGGCTACGACGGGATT
B25: AAUCCAG (DNA:RNA)
RNA: B1 RNA with U25A, G26A, C27U, G29C, C31G
DNA 1: CAATCTGAATTCCGGTCTCCC
DNA 2: TGGTGGCTACGACGGGATT
B26: CCGUAAG (DNA:RNA)
RNA: B4 RNA with A28U, U30A, U31G
DNA 1: CAATCTGAATTCCGGTCTCCC
DNA 2: TGGTGGCTACGACGGGATT
B27: UUGAACC (DNA:RNA)
RNA: B4 RNA with C25U, C26U, U30C, U31C
DNA 1: CAATCTGAATTCCGGTCTCCC
DNA 2: TGGTGGCTACGACGGGATT
B28: CGGUAUA (DNA:RNA)
RNA: B4 RNA with C26G, A28U, U31A
DNA 1: CAATCTGAATTCCGGTCTCCC
DNA 2: TGGTGGCTACGACGGGATT
B29: GAGCUAC (DNA:RNA)
RNA: B1 RNA with U25G, G26A, C27G, G29U
DNA 1: CAATCTGAATTCCGGTCTCCC
DNA 2: TGGTGGCTACGACGGGATT
B30: UGGUAAU (DNA:RNA)
RNA: B4 RNA with C25U, C26G, A28U, U30A
DNA 1: CAATCTGAATTCCGGTCTCCC
DNA 2: TGGTGGCTACGACGGGATT
B31: AGUUCGG (DNA:RNA)
RNA: B1 RNA with U25A, C27U, C28U, G29C, A30G, C31G
DNA 1: CAATCTGAATTCCGGTCTCCC
DNA 2: TGGTGGCTACGACGGGATT

The binders below were run against T1, RBFOX1 RRM RbFoxmut (Fox-RRM*) (assay: EMSA; HiTS-Eq, 1 nM pool, 10 min; buffer printed only for the single-RNA assays: 10 mM Tris pH 7.5, 150 mM NaCl, 3.4 mM EDTA, 0.001% NP-40, 30 C). Conditions: tags: His6 N-terminal (pET28a); label: 5' 32P.
Outline: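 These values rest on relative association constants, computed from read-count changes of each RNA species versus the control reaction and normalised to the cognate motif. Reads came from free RNA recovered by 8% native PAGE after purified RbFox RRM (wild type or mutant) at increasing concentrations was equilibrated for 10 min in 50 µL with 1 nM of a 5′-radiolabelled pool with 7 randomized nucleotides and DNA-annealed flanks.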

| Binder | binding signal |
| --- | --- |
| B1 | 0.102 KA relative to UGCAUGU |
| B2 | 0.131 KA relative to UGCAUGU |
| B3 | 0.135 KA relative to UGCAUGU |
| B4 | 0.0591 KA relative to UGCAUGU |
| B5 | 0.119 KA relative to UGCAUGU |
| B6 | 0.0692 KA relative to UGCAUGU |
| B7 | 0.106 KA relative to UGCAUGU |
| B8 | 0.112 KA relative to UGCAUGU |
| B9 | 0.14 KA relative to UGCAUGU |
| B10 | 0.127 KA relative to UGCAUGU |
| B11 | 0.101 KA relative to UGCAUGU |
| B12 | 0.065 KA relative to UGCAUGU |
| B13 | 0.165 KA relative to UGCAUGU |
| B14 | 0.125 KA relative to UGCAUGU |
| B15 | 0.139 KA relative to UGCAUGU |
| B16 | 0.0955 KA relative to UGCAUGU |

| Binder | binding signal |
| --- | --- |
| B17 | 0.149 KA relative to UGCAUGU |
| B18 | 0.11 KA relative to UGCAUGU |
| B19 | 0.122 KA relative to UGCAUGU |
| B20 | 0.0801 KA relative to UGCAUGU |
| B21 | 0.0819 KA relative to UGCAUGU |
| B22 | 0.0612 KA relative to UGCAUGU |
| B23 | 0.119 KA relative to UGCAUGU |
| B24 | 0.0604 KA relative to UGCAUGU |
| B25 | 0.103 KA relative to UGCAUGU |
| B26 | 0.111 KA relative to UGCAUGU |
| B27 | 0.129 KA relative to UGCAUGU |
| B28 | 0.0918 KA relative to UGCAUGU |
| B29 | 0.0827 KA relative to UGCAUGU |
| B30 | 0.121 KA relative to UGCAUGU |
| B31 | 0.109 KA relative to UGCAUGU |
